Among all 310,000 compounds or so, about 2,200 (0.71%) showed an effect of 50% or more. The effect is printed as a negative number. The list shows a part of the results.
Each compound was assayed against human ether-à-go-go-related gene (hERG) potassium channel (human, UniProt Q12809) (assay: primary screen, population patch clamp on CHO cells stably expressing hERG).
Chain of human ether-à-go-go-related gene (hERG) potassium channel (Q12809 whole entry, looked up): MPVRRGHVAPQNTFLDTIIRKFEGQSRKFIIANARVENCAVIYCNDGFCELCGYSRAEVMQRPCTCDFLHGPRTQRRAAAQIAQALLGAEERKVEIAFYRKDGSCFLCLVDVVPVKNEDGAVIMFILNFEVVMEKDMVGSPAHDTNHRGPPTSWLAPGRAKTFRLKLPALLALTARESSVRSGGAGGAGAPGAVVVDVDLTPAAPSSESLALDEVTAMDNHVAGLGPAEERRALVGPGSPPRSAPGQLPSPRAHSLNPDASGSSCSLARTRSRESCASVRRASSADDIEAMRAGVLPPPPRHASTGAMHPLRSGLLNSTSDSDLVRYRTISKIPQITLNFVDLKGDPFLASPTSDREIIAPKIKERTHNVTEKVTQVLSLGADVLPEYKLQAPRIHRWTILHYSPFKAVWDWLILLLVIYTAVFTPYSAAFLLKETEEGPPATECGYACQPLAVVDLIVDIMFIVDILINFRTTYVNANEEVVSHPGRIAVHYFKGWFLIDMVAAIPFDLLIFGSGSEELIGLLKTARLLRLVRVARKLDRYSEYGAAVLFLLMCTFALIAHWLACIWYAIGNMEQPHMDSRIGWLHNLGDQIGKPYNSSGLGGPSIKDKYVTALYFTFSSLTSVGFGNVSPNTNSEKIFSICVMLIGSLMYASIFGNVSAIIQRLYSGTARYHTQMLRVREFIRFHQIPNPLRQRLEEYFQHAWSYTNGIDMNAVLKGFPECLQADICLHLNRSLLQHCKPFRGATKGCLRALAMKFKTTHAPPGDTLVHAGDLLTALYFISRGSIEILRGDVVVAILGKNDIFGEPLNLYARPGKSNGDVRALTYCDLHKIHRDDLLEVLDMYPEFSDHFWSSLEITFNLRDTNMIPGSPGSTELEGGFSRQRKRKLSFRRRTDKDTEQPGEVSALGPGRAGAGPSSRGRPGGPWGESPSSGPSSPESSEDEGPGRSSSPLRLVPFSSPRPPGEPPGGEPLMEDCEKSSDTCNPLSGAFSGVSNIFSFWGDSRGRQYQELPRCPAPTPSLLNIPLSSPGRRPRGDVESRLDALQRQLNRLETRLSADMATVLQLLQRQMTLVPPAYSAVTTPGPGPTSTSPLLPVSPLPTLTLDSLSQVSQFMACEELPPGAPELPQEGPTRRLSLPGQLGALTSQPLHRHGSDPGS

Row | SMILES | hERG current change (%, negative = inhibition) at 1uM [%]
1 | Cc1c(NC(=O)COC(=O)C2(c3ccccc3F)CCCC2)c(=O)n(-c2ccccc2)n1C | 9.55
2 | COc1ccc(-c2cn3ccsc3n2)cc1 | 6.43
3 | O=C(CCC1CCCC1)NCCS(=O)(=O)N1CCN(c2ccccc2F)CC1 | 4
4 | c1ccc(CNCCC(Cc2ccccc2)c2ccco2)cc1 (stereo not drawn) | 5.58
5 | CCCCN(C)C(=O)c1sc2ncn(CC)c(=O)c2c1C | 1.68
6 | Cl.OCCNCc1cccc(OCc2ccccc2Cl)c1 | -2.16
7 | COc1cc(CC(=O)OCC(=O)Nc2ccc(S(=O)(=O)N3CCCC3)cc2)cc(OC)c1OC | 10.2
8 | O=C(CC1C(=O)NCCN1CCCc1ccccc1)NCCc1ccccc1Cl (stereo not drawn) | 3.91
9 | O=[N+]([O-])c1cccc2c(S(=O)(=O)N3CCCCC3)cccc12 | 14
10 | CC(C)N1CCN(Cc2ccncc2)CC1CCO (stereo not drawn) | 12.2
11 | COC(=O)CSc1nnc(C2COc3ccccc3O2)n1-c1ccccc1 (stereo not drawn) | 11.6
12 | Cn1cc(C(=O)c2ccc(Cl)cc2Cl)cc1C(=O)N/N=C(\N)COc1ccc(Cl)cc1 | 1.05
13 | COC(=O)c1ccc(NC(=O)C2CCCN(S(=O)(=O)c3cnc[nH]3)C2)cc1 (stereo not drawn) | 5.36
14 | CC1c2[nH]c3ccccc3c2C[C@H]2C(=O)N(CCO)CC(=O)N12 (stereo partly drawn) | 3.81
15 | O=c1cc(CO)oc(C(Nc2ccccn2)c2ccccc2F)c1O (stereo not drawn) | 16
16 | Cc1ccc(Cl)cc1N1CCN(CC(=O)Nc2ccc3[nH]c(=O)[nH]c3c2)CC1 | 16.5
17 | Cn1nc(C(F)(F)F)c(C(=O)Nc2ccc(F)cc2F)c1Sc1cccc(C(F)(F)F)c1 | 7.19
18 | Cc1cc(C(=O)CSc2ccccc2)cc(C)c1O | 14.9
19 | OCCCNC(=S)Nc1ccc2nc(-c3ccccn3)c(-c3ccccn3)nc2c1 | 9.44
20 | CCOC(=O)N1CCC(c2nc3ccccc3[nH]2)CC1 | 14.6
21 | O=C(Nc1ccc(Cl)cc1)Nc1nnc(CSCc2ccccc2)s1 | 15.6
22 | CC1CCCN(C(=O)C2CCCN(S(=O)(=O)c3cccc4nsnc34)C2)C1 (stereo not drawn) | 9.22

Row | SMILES | hERG current change (%, negative = inhibition) at 1uM [%]
23 | CN1CCN(C(=O)/C(=C/c2ccc(F)cc2)NC(=O)c2ccccc2)CC1 | -80.8
24 | CCC(C)(O)c1[nH]c2ccc(C(=O)OC)cc2c1C (stereo not drawn) | 8.51
25 | C[C@H](NC(=O)[C@H]1N2C(=O)c3ccccc3C2SC1(C)C)C(=O)N1CCN(C)CC1 (stereo partly drawn) | 10.4
26 | NC(=O)C1CCCN(CC(=O)Nc2ccccc2C(=O)NC2CC2)C1 (stereo not drawn) | 5.06
27 | CC(=O)Nc1cc2ccccc2oc1=O | 11.2
28 | Cc1ccc(C)c(Oc2ncnc(N)c2[N+](=O)[O-])c1 | 6.85
29 | COc1ccc(/C=C/C(=O)Nc2cccc(S(=O)(=O)NC3=NCCCCC3)c2)cc1OC | 12.2
30 | C=CCNC(=O)c1c(N)n(-c2cccc(S(N)(=O)=O)c2)c2nc3ccccc3nc12 | 3.17
31 | CN1C(=O)c2ccc(N(C)C)cc2C1=O | 12.4
32 | Cc1c(C(=O)N/N=C/c2ccncc2)no[n+]1[O-] | 13.8
33 | CCCCCCCCCCCCCC(=O)O | 2.26
34 | O=c1[nH]c(O)c(/C=C2\C=Nc3ccc(OCc4ccccc4)cc32)c(=O)[nH]1 | 19.8
35 | C#CCOCCOCCOCCNc1nc(N2CCN(C(=O)[C@H](Cc3cc4ccccc4[nH]3)n3cc([C@@H](N)C(C)CC)nn3)CC2)nc(N2CCN(C(=O)[C@H](CCCCN)n3cc([C@@H](N)CO)nn3)CC2)n1.Cl (stereo partly drawn) | 13.4
36 | Cc1cc(C)n(/N=C/c2ccco2)c(=O)c1C#N | 5.76
37 | Cc1c(N=C2SCC(=O)N2/N=C/c2ccccc2Cl)c(=O)n(-c2ccccc2)n1C | 9.32
38 | O=C(C1=C(O)C(=O)N(CC2CCCO2)C1c1ccccc1Cl)c1ccco1 (stereo not drawn) | 13.2
39 | CCSc1ccc2cc(OC)ccc2[n+]1CC.[I-] | 11.5
40 | Cc1ccc(NS(=O)(=O)c2cc3c4c(cccc4c2)C(=O)NC3=O)cc1C | 4.94
41 | O=C(NCc1ccccc1Cl)C1CCC(CNc2nc(=S)[nH]c3ccccc23)CC1 (stereo not drawn) | 9.06
42 | CSc1nc(N)nc(SCC(=O)C23CC4CC(CC(C4)C2)C3)c1C#N | 5.26
43 | COc1ccc(C(=O)OCC2CC(c3ccccc3)=NO2)cc1OC (stereo not drawn) | 2.83
44 | COc1cc(OC)nc(NC(=O)CSc2nc3ccccc3o2)n1 | 9.47

Row | SMILES | hERG current change (%, negative = inhibition) at 1uM [%]
45 | CC(C)c1ccc(NS(=O)(=O)c2ccc3[nH]cc(C(=O)N4CCC(C(N)=O)CC4)c(=O)c3c2)cc1 | 19.6
46 | O=C(c1ccccc1)N1CCN(C(=O)c2ccncc2)CC1 | 16.4
47 | CCC(C)(C)NC(=O)CCCSc1nc2ccccc2s1 | 16.9
48 | COc1ccc(-c2cc(C(F)(F)F)nc(SCC(=O)Nc3ccc4c(c3)OCO4)n2)cc1 | 5.95
49 | Cc1cc(C)c(C(=O)NNC(=O)c2cccnc2)c(C)c1 | 9.82
50 | Cc1cccc(NS(=O)(=O)c2cccc(C(=O)NCC(c3ccco3)N(C)C)c2)c1 (stereo not drawn) | 11.7
51 | COc1ccc(CN2CCN(CC=C(C)C)C(CCO)C2)cc1Cn1cccn1 (stereo not drawn) | 7.96
52 | COc1ccc2c(c1)[C@]13CCCCC1C(C2)N(C)CC3 (stereo partly drawn) | 7.88
53 | CC1=NN(C(N)=S)C(C)(C)C1 | 12.6
54 | I.c1ccc2c(c1)nc(N1CCCCCC1)c1ccccc12 | 11.1
55 | CCN(CC)S(=O)(=O)c1ccc(-c2csc(C)n2)cc1 | 10.9
56 | Cn1c(CNC(=O)c2ccc(Cl)cc2)nnc1SCC(=O)Nc1sc2c(c1C#N)CCCC2 | 0.949
57 | CCN(CC(=O)NC1CCS(=O)(=O)C1)c1nc(-c2cccnc2)nc2ccccc12 (stereo not drawn) | 6.68
58 | COc1ccc(-c2nnc3n2-c2ccccc2SC3)cc1OC.Cl | 13
59 | COC(=O)[C@@H]1[C@H](CCc2ccccc2)NC(=O)N(Cc2ccccc2)[C@@H]1C | 14.4
60 | Cl.O=C(CN1CCN(CCO)CC1)Nc1ccccc1 | 4.35
61 | O=C1CC(N(Cc2cccs2)C(=O)Nc2ccccc2)C(=O)N1c1ccc(Cl)cc1 (stereo not drawn) | 9.02
62 | O=C(/C=C/c1ccc(Br)cc1)NC(=S)Nc1ccc(S(=O)(=O)Nc2nccs2)cc1 | 16.2
63 | CN(C)S(=O)(=O)N1CCC(Oc2ccc(C(=O)N3C[C@H]4CC[C@H]3C4)cc2)CC1 | 2.43
64 | CC1CN(C(=O)CCC(=O)NCCCN2CCN(Cc3ccccc3)CC2)c2cc(Cl)ccc2O1 (stereo not drawn) | -68.1
65 | Cl.O=C(CN1CCCCC1)Nc1cccc([N+](=O)[O-])c1 | 1.66
66 | Cc1c(C)c2c(OCC(=O)NCC(C)C)cc3c(c2oc1=O)CCC(C)(C)O3 | 11.8

Row | SMILES | hERG current change (%, negative = inhibition) at 1uM [%]
67 | O=C(NCCc1cccc(F)c1)C1CCN(S(=O)(=O)c2ccccc2)CC1 | 3.36
68 | CCc1ccc(Nc2nc3ccccc3c(=O)s2)cc1 | 4.77
69 | CC(C)(C)OC(=O)CNC(=O)c1nc[nH]c1C(=O)N1CC[NH2+]CC1.[Cl-] | 10.9
70 | COc1ccc(C(C[N+](=O)[O-])c2c(C)cc3ccccn23)cc1 (stereo not drawn) | 11.5
71 | C=C1CCN([C@H](C(=O)OCc2cccc(C)c2)C(C)C)S(=O)(=O)c2ccccc21 | 6.92
72 | CCOc1ccc2oc(C(=O)N3CCN(c4ccccc4OCC)CC3)c(C)c2c1 | -19.7
73 | O=C1C2C3C=CC(C3=C3CCCCC3)C2C(=O)N1c1ccccc1 (stereo not drawn) | 15.2
74 | COc1ccc(/C(C)=N/Nc2nncc3ccccc23)cc1 | 13.5
75 | COc1ccc(C(=O)OCC(=O)NCC2CCCO2)cc1S(=O)(=O)N1CCCc2ccccc21 (stereo not drawn) | 5.82
76 | CC1(C)Cc2c(sc(NC(=O)C(=O)NCC3CCCO3)c2C(=O)O)CO1 (stereo not drawn) | 4.66
77 | CCn1cc(C(=O)N2CC(C)CC(C)C2)c(=O)c2cc(S(=O)(=O)N3CCOCC3)ccc21 (stereo not drawn) | -11.6
78 | COc1ccc(-c2cnc3n2CCCCC3)cc1 | 2.81
79 | COc1ccc2c(c1)OC(c1ccccc1)(C(F)(F)F)NC2=O (stereo not drawn) | 4.44
80 | CCc1cccc(C)c1NC(=O)CSc1nc2ccncc2[nH]1 | 3.35
81 | O=C(CN(Cc1ccccc1)C(=O)CNS(=O)(=O)c1ccc(Cl)cc1)NCC1CCCO1 (stereo not drawn) | 9.81
82 | O=C(C1CCCO1)N1CCN(C(=S)Nc2cccc(F)c2)CC1 (stereo not drawn) | 16.3
83 | COc1cc2c(cc1OC)C(=O)N1[C@H]3c4ccccc4OC[C@@H]3[C@H](c3ccccc3)[C@]1(C)C(=O)N2 | 10.6
84 | COCCNC(=O)CN1C(=O)NC2(CCCc3ccccc32)C1=O (stereo not drawn) | 7.39
85 | Cc1nc2ccccc2nc1N1CCOCC1 | 5.1
86 | COc1cccc2c1C(=O)CC2NC(=O)C(F)(F)F (stereo not drawn) | 2.93
87 | COc1cc(C(c2sc3nc(C)nn3c2O)N2CCC3(CC2)OCCO3)cc(OC)c1OC (stereo not drawn) | 36

From PMC4336329 (PLoS ONE, 2015)
